From publication PMC4658161
These are yes or no findings as the source states them, for the method shown. For some assays here: In cells and extracts the contact can be indirect. Some binding calls cover weakened binding; strength is not graded here. For some assays here: Sequences can lack the tags named with a protein.

Sequences of proteins named here, by UniProt entry; tags and fusion partners are left off. Residues count along the entry.
UniProt P08648, residues 42-1049: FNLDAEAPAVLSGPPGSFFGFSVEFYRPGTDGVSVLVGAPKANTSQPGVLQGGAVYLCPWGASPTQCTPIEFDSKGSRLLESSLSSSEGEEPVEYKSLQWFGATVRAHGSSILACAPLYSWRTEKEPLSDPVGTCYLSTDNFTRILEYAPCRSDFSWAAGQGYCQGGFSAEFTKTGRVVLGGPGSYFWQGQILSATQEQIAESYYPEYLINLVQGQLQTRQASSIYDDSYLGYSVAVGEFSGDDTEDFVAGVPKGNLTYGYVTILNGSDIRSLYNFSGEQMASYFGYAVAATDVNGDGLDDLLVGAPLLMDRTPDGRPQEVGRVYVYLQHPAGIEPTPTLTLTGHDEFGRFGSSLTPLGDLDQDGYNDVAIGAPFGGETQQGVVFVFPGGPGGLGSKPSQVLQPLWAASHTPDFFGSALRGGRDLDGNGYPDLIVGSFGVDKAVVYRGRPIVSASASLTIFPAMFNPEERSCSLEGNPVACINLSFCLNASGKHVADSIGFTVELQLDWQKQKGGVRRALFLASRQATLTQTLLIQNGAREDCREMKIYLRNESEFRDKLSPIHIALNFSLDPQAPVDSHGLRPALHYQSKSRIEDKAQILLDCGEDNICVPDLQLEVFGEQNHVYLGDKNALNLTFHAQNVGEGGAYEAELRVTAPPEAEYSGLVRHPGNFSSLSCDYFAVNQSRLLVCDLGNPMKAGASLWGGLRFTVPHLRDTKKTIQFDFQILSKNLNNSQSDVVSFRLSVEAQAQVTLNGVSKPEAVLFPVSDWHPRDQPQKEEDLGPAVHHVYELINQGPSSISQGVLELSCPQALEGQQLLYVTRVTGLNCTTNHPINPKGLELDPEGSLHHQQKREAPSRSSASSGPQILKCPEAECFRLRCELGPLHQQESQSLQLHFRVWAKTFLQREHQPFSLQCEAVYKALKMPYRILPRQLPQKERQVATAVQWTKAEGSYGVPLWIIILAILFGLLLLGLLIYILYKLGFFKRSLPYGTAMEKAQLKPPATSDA
UniProt Q96EP0: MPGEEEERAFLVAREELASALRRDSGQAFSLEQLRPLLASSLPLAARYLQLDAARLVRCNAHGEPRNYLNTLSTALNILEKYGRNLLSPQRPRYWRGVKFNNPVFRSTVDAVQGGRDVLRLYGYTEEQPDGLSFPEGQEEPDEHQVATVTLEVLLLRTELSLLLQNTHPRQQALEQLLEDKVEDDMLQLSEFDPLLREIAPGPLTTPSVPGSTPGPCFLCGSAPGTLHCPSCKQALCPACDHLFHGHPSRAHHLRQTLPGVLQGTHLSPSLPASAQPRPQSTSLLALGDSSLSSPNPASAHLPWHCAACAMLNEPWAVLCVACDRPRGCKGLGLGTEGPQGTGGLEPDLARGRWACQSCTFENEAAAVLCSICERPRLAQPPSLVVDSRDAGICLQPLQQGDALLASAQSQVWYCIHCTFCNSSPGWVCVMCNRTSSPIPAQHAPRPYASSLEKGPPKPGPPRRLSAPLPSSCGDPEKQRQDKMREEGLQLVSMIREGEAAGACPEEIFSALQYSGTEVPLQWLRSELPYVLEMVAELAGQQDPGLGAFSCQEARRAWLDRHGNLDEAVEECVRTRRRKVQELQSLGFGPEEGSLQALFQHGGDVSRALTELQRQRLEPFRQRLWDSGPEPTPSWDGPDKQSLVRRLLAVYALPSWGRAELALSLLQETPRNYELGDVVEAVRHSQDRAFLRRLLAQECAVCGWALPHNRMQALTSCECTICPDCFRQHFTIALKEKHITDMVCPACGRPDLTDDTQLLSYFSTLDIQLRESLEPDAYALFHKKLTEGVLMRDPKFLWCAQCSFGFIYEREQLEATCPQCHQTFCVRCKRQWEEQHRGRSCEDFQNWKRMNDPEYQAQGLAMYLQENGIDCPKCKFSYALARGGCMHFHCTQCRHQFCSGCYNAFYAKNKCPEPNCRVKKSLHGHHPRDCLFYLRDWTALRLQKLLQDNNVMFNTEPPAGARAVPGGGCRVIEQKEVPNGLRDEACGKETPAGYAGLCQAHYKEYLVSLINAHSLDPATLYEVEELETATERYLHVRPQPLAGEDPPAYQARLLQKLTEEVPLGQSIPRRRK

T1: GST-SHARPIN^WT (UniProt Q9H0F6)
T1 sequence: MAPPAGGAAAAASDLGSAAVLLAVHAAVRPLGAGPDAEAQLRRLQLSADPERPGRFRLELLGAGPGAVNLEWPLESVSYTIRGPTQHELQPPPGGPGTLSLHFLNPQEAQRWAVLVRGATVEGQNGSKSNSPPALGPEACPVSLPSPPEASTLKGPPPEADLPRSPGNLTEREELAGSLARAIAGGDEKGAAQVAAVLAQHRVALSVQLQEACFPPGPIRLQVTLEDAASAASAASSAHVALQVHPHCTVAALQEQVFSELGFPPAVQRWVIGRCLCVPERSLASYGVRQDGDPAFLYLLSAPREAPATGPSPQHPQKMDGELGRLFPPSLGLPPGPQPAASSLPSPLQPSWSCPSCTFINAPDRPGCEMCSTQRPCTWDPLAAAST

T2: endogenous ITGAL (Jurkat cells) (human (endogenous in Jurkat)) (UniProt P20701)
T2 sequence: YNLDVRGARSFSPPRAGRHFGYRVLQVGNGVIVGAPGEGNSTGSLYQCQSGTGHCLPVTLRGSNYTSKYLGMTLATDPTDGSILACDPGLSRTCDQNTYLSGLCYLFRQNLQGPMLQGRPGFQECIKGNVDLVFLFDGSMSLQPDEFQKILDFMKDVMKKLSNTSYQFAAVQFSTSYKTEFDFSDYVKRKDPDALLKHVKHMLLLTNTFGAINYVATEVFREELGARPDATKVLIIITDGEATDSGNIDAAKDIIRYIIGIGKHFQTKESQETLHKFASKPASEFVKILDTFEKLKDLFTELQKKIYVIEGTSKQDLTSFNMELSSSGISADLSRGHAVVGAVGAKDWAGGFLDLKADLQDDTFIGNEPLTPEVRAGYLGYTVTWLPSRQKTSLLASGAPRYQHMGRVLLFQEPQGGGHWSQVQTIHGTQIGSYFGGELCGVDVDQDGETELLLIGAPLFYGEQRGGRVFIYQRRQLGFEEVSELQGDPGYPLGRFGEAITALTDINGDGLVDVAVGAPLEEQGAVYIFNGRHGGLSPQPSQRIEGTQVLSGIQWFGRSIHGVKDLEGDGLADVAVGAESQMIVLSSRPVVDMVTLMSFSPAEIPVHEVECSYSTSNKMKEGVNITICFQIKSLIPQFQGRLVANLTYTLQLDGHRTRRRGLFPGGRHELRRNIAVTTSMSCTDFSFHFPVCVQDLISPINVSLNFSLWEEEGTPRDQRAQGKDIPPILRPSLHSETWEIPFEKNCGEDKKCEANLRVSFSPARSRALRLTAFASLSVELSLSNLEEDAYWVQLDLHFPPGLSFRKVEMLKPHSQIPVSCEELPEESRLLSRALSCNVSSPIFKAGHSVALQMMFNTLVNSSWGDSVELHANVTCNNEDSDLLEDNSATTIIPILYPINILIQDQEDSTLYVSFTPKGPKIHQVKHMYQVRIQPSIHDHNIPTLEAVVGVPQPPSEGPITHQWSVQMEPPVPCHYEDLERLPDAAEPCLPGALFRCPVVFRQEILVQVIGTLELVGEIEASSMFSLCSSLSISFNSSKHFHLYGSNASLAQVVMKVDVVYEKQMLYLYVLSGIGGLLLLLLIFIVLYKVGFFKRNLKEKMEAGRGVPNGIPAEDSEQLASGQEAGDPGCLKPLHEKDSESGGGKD


How the values were obtained:
[1] = target: ITGA5-mCherry (UniProt P08648); experiment: FRET or BRET; FRET measured by FLIM between GFP-SHARPIN (WT or mutants) and ITGA5-mCherry overexpressed in HEK293 cells
[2] = target: recombinant RNF31 (UniProt Q96EP0); experiment: pull-down; GST-SHARPIN and recombinant RNF31 in vitro, with or without the ITGAL cytoplasmic-domain peptide; both purified
[3] = target: recombinant RNF31 (UniProt Q96EP0); experiment: ELISA; recombinant RNF31 coated on 96-well plates overnight at +4°C; 0.1 mM GST-SHARPIN WT or mutant, 3 h at room temperature in 0.1% Tween20, 5% BSA, 10 μM ZnCl2, 1 mM DTT in TBS; detected with anti-GST; both purified
[4] = target: recombinant RNF31 (UniProt Q96EP0); experiment: far-Western; GST-SHARPIN (WT, fragments or point mutants) with recombinant full-length ITGAL-ITGB2 or recombinant RNF31; which partner was on the membrane is not told; performed as described in ref. 5; both purified
[5] = target: T1, GST-SHARPIN^WT; experiment: pull-down; GST-SHARPIN and recombinant RNF31 in vitro, with or without the ITGAL cytoplasmic-domain peptide; both purified
[6] = target: T2, endogenous ITGAL (Jurkat cells) (human (endogenous in Jurkat)); experiment: co-IP; endogenous proteins from Jurkat cells, immunoprecipitated with an ITGAL antibody (GFP antibody as negative control)

Binder | binding [1] | other results
GFP-SHARPIN^E260A/L261A (protein, UniProt Q9H0F6 1-387) MAPPAGGAAAAASDLGSAAVLLAVHAAVRPLGAGPDAEAQLRRLQLSADPERPGRFRLELLGAGPGAVNLEWPLESVSYTIRGPTQHELQPPPGGPGTLSLHFLNPQEAQRWAVLVRGATVEGQNGSKSNSPPALGPEACPVSLPSPPEASTLKGPPPEADLPRSPGNLTEREELAGSLARAIAGGDEKGAAQVAAVLAQHRVALSVQLQEACFPPGPIRLQVTLEDAASAASAASSAHVALQVHPHCTVAALQEQVFSAAGFPPAVQRWVIGRCLCVPERSLASYGVRQDGDPAFLYLLSAPREAPATGPSPQHPQKMDGELGRLFPPSLGLPPGPQPAASSLPSPLQPSWSCPSCTFINAPDRPGCEMCSTQRPCTWDPLAAAST | binds | –
GFP-SHARPIN^L261A/F263A (protein, UniProt Q9H0F6 1-387) MAPPAGGAAAAASDLGSAAVLLAVHAAVRPLGAGPDAEAQLRRLQLSADPERPGRFRLELLGAGPGAVNLEWPLESVSYTIRGPTQHELQPPPGGPGTLSLHFLNPQEAQRWAVLVRGATVEGQNGSKSNSPPALGPEACPVSLPSPPEASTLKGPPPEADLPRSPGNLTEREELAGSLARAIAGGDEKGAAQVAAVLAQHRVALSVQLQEACFPPGPIRLQVTLEDAASAASAASSAHVALQVHPHCTVAALQEQVFSEAGAPPAVQRWVIGRCLCVPERSLASYGVRQDGDPAFLYLLSAPREAPATGPSPQHPQKMDGELGRLFPPSLGLPPGPQPAASSLPSPLQPSWSCPSCTFINAPDRPGCEMCSTQRPCTWDPLAAAST | binds | –
GFP-SHARPIN^I272A (protein, UniProt Q9H0F6 1-387) MAPPAGGAAAAASDLGSAAVLLAVHAAVRPLGAGPDAEAQLRRLQLSADPERPGRFRLELLGAGPGAVNLEWPLESVSYTIRGPTQHELQPPPGGPGTLSLHFLNPQEAQRWAVLVRGATVEGQNGSKSNSPPALGPEACPVSLPSPPEASTLKGPPPEADLPRSPGNLTEREELAGSLARAIAGGDEKGAAQVAAVLAQHRVALSVQLQEACFPPGPIRLQVTLEDAASAASAASSAHVALQVHPHCTVAALQEQVFSELGFPPAVQRWVAGRCLCVPERSLASYGVRQDGDPAFLYLLSAPREAPATGPSPQHPQKMDGELGRLFPPSLGLPPGPQPAASSLPSPLQPSWSCPSCTFINAPDRPGCEMCSTQRPCTWDPLAAAST | binds | –
GST-SHARPIN^WT (protein, UniProt Q9H0F6 1-387) MAPPAGGAAAAASDLGSAAVLLAVHAAVRPLGAGPDAEAQLRRLQLSADPERPGRFRLELLGAGPGAVNLEWPLESVSYTIRGPTQHELQPPPGGPGTLSLHFLNPQEAQRWAVLVRGATVEGQNGSKSNSPPALGPEACPVSLPSPPEASTLKGPPPEADLPRSPGNLTEREELAGSLARAIAGGDEKGAAQVAAVLAQHRVALSVQLQEACFPPGPIRLQVTLEDAASAASAASSAHVALQVHPHCTVAALQEQVFSELGFPPAVQRWVIGRCLCVPERSLASYGVRQDGDPAFLYLLSAPREAPATGPSPQHPQKMDGELGRLFPPSLGLPPGPQPAASSLPSPLQPSWSCPSCTFINAPDRPGCEMCSTQRPCTWDPLAAAST | – | binding [2]: binds; binding [3]: binds; binding [4]: binds
biotinylated peptide corresponding to the cytoplasmic domain of human ITGAL (peptide, UniProt P20701 1112-1170, biotinylated (position not given)) peptide: YKVGFFKRNLKEKMEAGRGVPNGIPAEDSEQLASGQEAGDPGCLKPLHEKDSESGGGKD | – | binding [5]: binds
endogenous SHARPIN (Jurkat cells) (protein, UniProt Q9H0F6 1-387) MAPPAGGAAAAASDLGSAAVLLAVHAAVRPLGAGPDAEAQLRRLQLSADPERPGRFRLELLGAGPGAVNLEWPLESVSYTIRGPTQHELQPPPGGPGTLSLHFLNPQEAQRWAVLVRGATVEGQNGSKSNSPPALGPEACPVSLPSPPEASTLKGPPPEADLPRSPGNLTEREELAGSLARAIAGGDEKGAAQVAAVLAQHRVALSVQLQEACFPPGPIRLQVTLEDAASAASAASSAHVALQVHPHCTVAALQEQVFSELGFPPAVQRWVIGRCLCVPERSLASYGVRQDGDPAFLYLLSAPREAPATGPSPQHPQKMDGELGRLFPPSLGLPPGPQPAASSLPSPLQPSWSCPSCTFINAPDRPGCEMCSTQRPCTWDPLAAAST | – | binding [6]: binds
GFP-SHARPIN^WT (protein, UniProt Q9H0F6 1-387) MAPPAGGAAAAASDLGSAAVLLAVHAAVRPLGAGPDAEAQLRRLQLSADPERPGRFRLELLGAGPGAVNLEWPLESVSYTIRGPTQHELQPPPGGPGTLSLHFLNPQEAQRWAVLVRGATVEGQNGSKSNSPPALGPEACPVSLPSPPEASTLKGPPPEADLPRSPGNLTEREELAGSLARAIAGGDEKGAAQVAAVLAQHRVALSVQLQEACFPPGPIRLQVTLEDAASAASAASSAHVALQVHPHCTVAALQEQVFSELGFPPAVQRWVIGRCLCVPERSLASYGVRQDGDPAFLYLLSAPREAPATGPSPQHPQKMDGELGRLFPPSLGLPPGPQPAASSLPSPLQPSWSCPSCTFINAPDRPGCEMCSTQRPCTWDPLAAAST | binds | –
GFP-SHARPIN^L276A (protein, UniProt Q9H0F6 1-387) MAPPAGGAAAAASDLGSAAVLLAVHAAVRPLGAGPDAEAQLRRLQLSADPERPGRFRLELLGAGPGAVNLEWPLESVSYTIRGPTQHELQPPPGGPGTLSLHFLNPQEAQRWAVLVRGATVEGQNGSKSNSPPALGPEACPVSLPSPPEASTLKGPPPEADLPRSPGNLTEREELAGSLARAIAGGDEKGAAQVAAVLAQHRVALSVQLQEACFPPGPIRLQVTLEDAASAASAASSAHVALQVHPHCTVAALQEQVFSELGFPPAVQRWVIGRCACVPERSLASYGVRQDGDPAFLYLLSAPREAPATGPSPQHPQKMDGELGRLFPPSLGLPPGPQPAASSLPSPLQPSWSCPSCTFINAPDRPGCEMCSTQRPCTWDPLAAAST | binds | –
GFP-SHARPIN^V240A/L242A (protein, UniProt Q9H0F6 1-387) MAPPAGGAAAAASDLGSAAVLLAVHAAVRPLGAGPDAEAQLRRLQLSADPERPGRFRLELLGAGPGAVNLEWPLESVSYTIRGPTQHELQPPPGGPGTLSLHFLNPQEAQRWAVLVRGATVEGQNGSKSNSPPALGPEACPVSLPSPPEASTLKGPPPEADLPRSPGNLTEREELAGSLARAIAGGDEKGAAQVAAVLAQHRVALSVQLQEACFPPGPIRLQVTLEDAASAASAASSAHAAAQVHPHCTVAALQEQVFSELGFPPAVQRWVIGRCLCVPERSLASYGVRQDGDPAFLYLLSAPREAPATGPSPQHPQKMDGELGRLFPPSLGLPPGPQPAASSLPSPLQPSWSCPSCTFINAPDRPGCEMCSTQRPCTWDPLAAAST | binds | –
